Measured values reported in paper PMC4813479 (The Journal of Biological Chemistry, 2015).

Molecular target: T1, β3 subunit of the crystallized αIIbβ3 headpiece (UniProt P05106 27-497)
T1 construct: integrin β3 subunit, headpiece portion; as the β3 chain of m3; The β3 chain of m3, written alone for the pairs within the structures; also called β-subunit; source: recombinant; not shown: α-helical coiled-coil, C-terminal, cleaved
T1 sequence: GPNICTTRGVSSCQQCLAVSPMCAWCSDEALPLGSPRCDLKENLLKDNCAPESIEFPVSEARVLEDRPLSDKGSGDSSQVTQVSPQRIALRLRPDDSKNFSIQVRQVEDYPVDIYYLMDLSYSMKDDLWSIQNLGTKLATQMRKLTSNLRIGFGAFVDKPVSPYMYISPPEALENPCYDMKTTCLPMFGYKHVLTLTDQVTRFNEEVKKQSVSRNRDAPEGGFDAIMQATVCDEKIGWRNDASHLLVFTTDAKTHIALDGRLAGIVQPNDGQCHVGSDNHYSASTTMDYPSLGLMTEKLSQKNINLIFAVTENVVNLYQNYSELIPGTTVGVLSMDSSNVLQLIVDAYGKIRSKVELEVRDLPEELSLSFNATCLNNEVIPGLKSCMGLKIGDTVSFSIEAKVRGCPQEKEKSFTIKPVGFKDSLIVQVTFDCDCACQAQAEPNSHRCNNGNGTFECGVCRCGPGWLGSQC
Experiment: crystal structure; closed αIIbβ3 headpiece-10E5 Fab crystals soaked with 50 mM peptide for 2 h or 1 week at 4 °C in Mn/Ca; 15% PEG 8000, 0.2 M ammonium sulfate, 0.1 M Tris-HCl, pH 8.9, 20% glycerol
Details: both partners purified

binding result: binds
B1: αIIb subunit of the crystallized αIIbβ3 headpiece (domain or fragment)
chain: not shown
notes: integrin αIIb subunit, headpiece with the thigh domain removed; as the αIIb chain of m3; The αIIb chain of m3, written alone for the pair of the two subunits in the structures; also called α-subunit; source: recombinant; not shown: α-helical coiled-coil, C-terminal, cleaved
